The source of these data is article PMC9911399, “Two distinct binding modes provide the RNA-binding protein RbFox with extraordinary sequence specificity”.

The labels stand for the following.
T1: RBFOX1 RRM RbFoxmut (Fox-RRM*) (Homo sapiens, UniProt Q9NWB1 109-208, R118D;E147R;N151S;E152T)
T1 sequence: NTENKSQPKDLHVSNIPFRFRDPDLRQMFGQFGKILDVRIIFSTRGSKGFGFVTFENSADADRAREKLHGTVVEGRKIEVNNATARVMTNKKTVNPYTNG

B1: GUAUCUG (DNA:RNA)
RNA: GGGAGACCGGAAUUCAGAUUGUCCGUAUCUGUUAAAUCCCGUCGUAGCCACCA
DNA 1: CAATCTGAATTCCGGTCTCCC
DNA 2: TGGTGGCTACGACGGGATT
B2: CAGACUU (DNA:RNA)
RNA: B1 RNA with G25C, U26A, A27G, U28A, G31U
DNA 1: CAATCTGAATTCCGGTCTCCC
DNA 2: TGGTGGCTACGACGGGATT
B3: AUCAUCC (DNA:RNA)
RNA: B1 RNA with G25A, A27C, U28A, C29U, U30C, G31C
DNA 1: CAATCTGAATTCCGGTCTCCC
DNA 2: TGGTGGCTACGACGGGATT
B4: AGACCAA (DNA:RNA)
RNA: B1 RNA with G25A, U26G, U28C, U30A, G31A
DNA 1: CAATCTGAATTCCGGTCTCCC
DNA 2: TGGTGGCTACGACGGGATT
B5: AUUGCGG (DNA:RNA)
RNA: B1 RNA with G25A, A27U, U28G, U30G
DNA 1: CAATCTGAATTCCGGTCTCCC
DNA 2: TGGTGGCTACGACGGGATT
B6: UGCUGUG (DNA:RNA)
RNA: B1 RNA with G25U, U26G, A27C, C29G
DNA 1: CAATCTGAATTCCGGTCTCCC
DNA 2: TGGTGGCTACGACGGGATT
B7: GGUAUUU (DNA:RNA)
RNA: B1 RNA with U26G, A27U, U28A, C29U, G31U
DNA 1: CAATCTGAATTCCGGTCTCCC
DNA 2: TGGTGGCTACGACGGGATT
B8: ACUUUAA (DNA:RNA)
RNA: B1 RNA with G25A, U26C, A27U, C29U, U30A, G31A
DNA 1: CAATCTGAATTCCGGTCTCCC
DNA 2: TGGTGGCTACGACGGGATT
B9: GGAUGCA (DNA:RNA)
RNA: B1 RNA with U26G, C29G, U30C, G31A
DNA 1: CAATCTGAATTCCGGTCTCCC
DNA 2: TGGTGGCTACGACGGGATT

Changes are numbered by the printed parent chain; changes in the protein carry UniProt numbers. The list shows a part of the results.

In this assay the target is T1, RBFOX1 RRM RbFoxmut (Fox-RRM*). Briefly: EMSA; HiTS-Eq, 1 nM pool, 10 min; buffer printed only for the single-RNA assays: 10 mM Tris pH 7.5, 150 mM NaCl, 3.4 mM EDTA, 0.001% NP-40, 30 C. The conditions noted are these: tags: His6 N-terminal (pET28a); label: 5' 32P. In short, it runs like this:
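A pool of RNA with 7 randomized nucleotides, 5′-radiolabelled and with DNA-annealed flanks, was equilibrated at 1 nM for 10 min in 50 µL with purified RbFox RRM, wild type or mutant, across increasing protein concentrations. Free RNA was separated by 8% native PAGE, excised, reverse-transcribed, barcoded by PCR and sequenced. Relative association constants were obtained from read-count changes of each RNA species versus the control reaction and normalised to the cognate motif.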
(In general: Mobility shift assays separate free from complexed probe on a gel.)
Turning to B1, the binding signal is 0.17 KA relative to UGCAUGU.
In the case of B2 it was 0.0511 KA relative to UGCAUGU.
In the case of B3 it was 0.0557 KA relative to UGCAUGU; in that of B4, 0.0887 KA relative to UGCAUGU; in that of B5, 0.0848 KA relative to UGCAUGU.
For the molecule B6, the binding signal is 0.217 KA relative to UGCAUGU.
In the case of B7 it was 0.104 KA relative to UGCAUGU.
In the case of B8 it was 0.125 KA relative to UGCAUGU.
In the case of B9 it was 0.24 KA relative to UGCAUGU.
